Experimental data from the supplement of paper PMC10126150.
Values marked as one replicate rest on one cluster of the flow cell; about a third of the high ones do not repeat.

Each sequence was assayed on ATP (assay: switch fluorescence ratio, 500 uM ATP over buffer (Cy3 cluster intensity, sum of 5 cycles each) (fold (ratio)); higher = stronger signal-on switching upon ATP binding; sequences stand for … in TCGTCGGCAGCGTCAGATGTGTATAAGAGACAGTTTTTTTTTTTTTTTTTTTTTTTTT…TC). Conditions: aptamer strand: ATP DNA aptamer (quencher-CACCTGGGGGAGTATTGCGGAGGAAGG + anchor), 100 nM annealed; ATP concentration: 500 uM; one replicate.
Method in brief: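 Clusters with intensities outside 100-1000 RFU were excluded. The remaining Cy3-labelled switching-strand clusters on a modified Illumina MiSeq flow-cell had been annealed to 100 nM quencher-labelled ATP aptamer and imaged in selection buffer, then after 15 min with 500 uM ATP at 22 °C, for five cycles separated by NaOH stripping and re-annealing. The fluorescence ratio, averaged per switch-domain sequence, is each cluster's summed target-cycle Cy3 intensity over its summed buffer-cycle Cy3 intensity.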
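Note: ATP exposure 15 min at 22 °C before imaging.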

Sequence | switch fluorescence ratio
TCACAGCCTA | 0.986
TCACAGGCA | 0.987
TCACATG | 0.997
TCACATGGGT | 0.976
TCACATTGAA | 0.963
TCACCAAATC | 1.03
TCACCACAGC | 1.08
TCACCACTGC | 1.47
TCACCCGGTC | 1.19
TCACCTACGA | 1.46
TCACCTATCT | 1.01
TCACGATATA | 0.968
TCACGATTAC | 1.47
TCACGCAGGA | 1.12
TCACGCCGTC | 0.986
TCACGGCTGC | 1.06
TCACGGTCCA | 1.01
TCACGTCAAA | 1.68
TCACGTTCCG | 1.03
TCACTACGTC | 1.04
TCACTCAAGG | 0.999
TCACTCTACG | 1.31
TCACTCTGGC | 0.942
TCACTGCTTA | 1.07
TCAGAACTCT | 1.04
TCAGAGACTT | 0.995

Sequence | switch fluorescence ratio
TCAGAGCT | 0.98
TCAGAGGGTG | 1.09
TCAGATAGTC | 0.985
TCAGATCGTT | 0.995
TCAGCAAGTA | 1.05
TCAGCGTATC | 1.07
TCAGCGTTGA | 1.03
TCAGCTATAG | 1.44
TCAGCTTCGT | 1.03
TCAGGCAACT | 0.99
TCAGGCAATA | 4.01
TCAGGCT | 1.04
TCAGGGCATT | 1.03
TCAGGGGCTC | 1.04
TCAGGGGGG | 1.12
TCAGGGTAC | 1.06
TCAGGGTCGA | 1.24
TCAGGTCATT | 0.986
TCAGTCATAC | 3.32
TCAGTCCAGT | 1
TCAGTGCAAA | 1.03
TCAGTTAAGT | 0.977
TCAGTTATCC | 0.958
TCAGTTGCCT | 0.986
TCAGTTGGGT | 0.948
TCAGTTGTAA | 1

Sequence | switch fluorescence ratio
TCAGTTTAGG | 1
TCATAAAGCA | 1.04
TCATAAGATA | 1.03
TCATAAGTCG | 0.947
TCATAATACA | 1.02
TCATAATGAA | 1.02
TCATAGCAAT | 3.41
TCATATAACA | 1.01
TCATATGCGG | 1.02
TCATCAACGA | 1.02
TCATCAGGGA | 1.02
TCATCAGTTT | 1.04
TCATCCGGG | 1.33
TCATCGTGGT | 0.973
TCATCTAGCT | 1.05
TCATGACAAA | 0.984
TCATGACGAA | 1.03
TCATGAGTAT | 1.01
TCATTACTTT | 1.02
TCATTCAGAG | 0.985
TCATTGACAC | 1.1
TCATTGACCG | 1.02
TCATTTCCGA | 1.07
TCATTTTGGT | 1.05
TCCAAATGTG | 0.99
TCCAACAGCT | 1.16

Sequence | switch fluorescence ratio
TCCAAGAGAT | 1.03
TCCAAGGCTC | 1.08
TCCAAGTAAT | 1.7
TCCAAGTTCC | 1.06
TCCAATCCTT | 1.03
TCCACAGACT | 1.26
TCCACCGACG | 1.5
TCCACCGGGC | 1.17
TCCACGTTGC | 1.13
TCCACTGGCA | 1.19
TCCAGAAGTG | 1.08
TCCAGAGCCA | 1.84
TCCAGATGCT | 1.01
TCCAGCAGTT | 0.998
TCCAGCTAAT | 1.01
TCCAGGCA | 1.04
TCCAGGCATG | 0.983
TCCAGGCGCA | 1.4
TCCATATACG | 1.1
TCCATCGACC | 1.09
TCCATGATTT | 1.01
TCCATGGGCT | 1.02
TCCATGTGGG | 1.02
TCCATTAGAG | 1
TCCCAAATCG | 1.02
TCCCACCCCA | 1.05

Sequence | switch fluorescence ratio
TCCCACGTTT | 0.99
TCCCAGTAGT | 0.982
TCCCAGTGAT | 1.8
TCCCATCCCG | 1.02
TCCCCCGTTG | 2.79
TCCCCGATGT | 1.17
TCCCGGGGA | 1.01
TCCCGTTGGC | 1
TCCCGTTGTT | 0.976
TCCCGTTTCG | 1.02
TCCCTAGTCG | 1.01
TCCCTATGT | 1.4
TCCCTCCAAG | 1.24
TCCCTGCAGC | 1.17
TCCCTTCTGA | 1.07
TCCGAACAAG | 1.69
TCCGAAGAGT | 1.24
TCCGAATCAG | 1.18
TCCGACATAA | 5.84
TCCGACCGGA | 1.25
TCCGAGATGA | 1.25
TCCGATTATT | 1.04
TCCGCAACGG | 1.03
TCCGCATAGC | 1.88
TCCGCATGGA | 2.02
TCCGCCATTC | 1.95

Sequence | switch fluorescence ratio
TCCGCTCTTT | 1.15
TCCGCTGATT | 1.86
TCCGCTGTTT | 1.27
TCCGCTTATT | 2.27
TCCGCTTCCA | 1.05
TCCGGAAAGG | 1.32
TCCGGACACG | 1.03
TCCGGCGGGT | 1.07
TCCGGGCGTG | 1.03
TCCGGTCATA | 1.12
TCCGGTGCGC | 1.23
TCCGGTTGAA | 0.954
TCCGTGCACT | 1.35
TCCGTGTA | 0.957
TCCGTTAACA | 1.06
TCCGTTCATT | 1.01
TCCGTTTAAC | 1.74
TCCGTTTTG | 1.08
TCCTAAAATA | 1.04
TCCTAATTCC | 1.1
TCCTATAGAG | 1.01
TCCTATTTCA | 0.968
TCCTCATCTT | 1.05
TCCTCATTT | 0.991
TCCTCGGGGT | 1.05
TCCTGACGTG | 1.05

Sequence | switch fluorescence ratio
TCCTGGACGC | 1.17
TCCTGGATGC | 1.29
TCCTGGGACC | 1.04
TCCTGGTCAG | 1.01
TCCTGGTGCA | 1.36
TCCTGTAATA | 1.62
TCCTGTTTTG | 1.03
TCCTTAAATC | 1.14
TCCTTAAGCG | 1.2
TCCTTCTCAT | 1.13
TCCTTGCAT | 3.35
TCCTTTCATT | 0.968
TCCTTTTGTC | 1.06
TCGAAACTA | 0.988
TCGAACATCG | 0.965
TCGAACTTGT | 1.09
TCGAAGATCG | 1.02
TCGACAGGTC | 1.03
TCGACCAGAG | 1.09
TCGACCGACT | 1.05
TCGACCTTTG | 1.06
TCGACGGCTT | 1.14
TCGAGACAAT | 1.93
TCGAGAGCG | 0.998
TCGAGCTAAA | 1.16
TCGAGGACGT | 1.05

Sequence | switch fluorescence ratio
TCGAGGCCGC | 1.02
TCGAGGCCGG | 1.05
TCGAGGGTTG | 0.983
TCGAGGTATG | 0.996
TCGAGTGATC | 1.06
TCGAGTTCTA | 0.953
TCGATACATC | 1.06
TCGATACTAC | 1.37
TCGATCGCTC | 2.45
TCGATGATA | 0.979
TCGATGCTGC | 1.04
TCGATTTAT | 1.04
TCGCAACAGC | 2.12
TCGCAACGTT | 1.12
TCGCAAGCTG | 1.29
TCGCACAGAG | 1.04
TCGCAGCGGG | 1.08
TCGCAGTCCA | 1.02
TCGCATCA | 1.07
